# From the supplement of paper PMC8728848
# The list shows a part of the results.
# B1: Gal 8 (Homo sapiens), O00214 (protein)
# chain: MMLSLNNLQNIIYNPVIPFVGTIPDQLDPGTLIVIRGHVPSDADRFQVDLQNGSSMKPRADVAFHFNPRFKRAGCIVCNTLINEKWGREEITYDTPFKREKSFEIVIMVKDKFQVAVNGKHTLLYGHRIGPEKIDTLGIYGKVNIHSIGFSFSSDLQSTQASSLELTEISRENVPKSGTPQLPSNRGGDISKIAPRTVYTKSKDSTVNHTLTCTKIPPMNYVSKRLPFAARLNTPMGPGRTVVVKGEVNANAKSFNVDLLAGKSKDIALHLNPRLNIKAFVRNSFLQESWGEEERNITSFPFSPGMYFEMIIYCDVREFKVAVNGVHSLEYKHRFKELSSIDTLEINGDIHLLEVRSW
# Key:
# Assay in all cases: glycan array binding signal (z-score within array); higher = stronger binding
# Conditions in all cases: glycan notation: IUPAC condensed, linker removed
# GalNAc(b1-3)GalNAc = molecular target: GalNAc(b1-3)GalNAc
# Procedure, shortened: (§1)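 Glycan array data were curated from 3228 arrays in the Consortium for Functional Glycomics database and kept only where the protein sequence was available. Glycan names were converted to IUPAC-condensed notation, and columns mapping to the same glycan were averaged. The binding signal is a within-array Z-score, averaged across arrays of the same protein sequence at different concentrations or buffers and across linkers. Negative Z-scores can be read as non-binding.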
# GalNAc(b1-4)GlcNAc = molecular target: GalNAc(b1-4)GlcNAc
# Procedure, shortened: as §1
# Glc(a1-4)Glc = molecular target: Glc(a1-4)Glc
# Procedure, shortened: as §1
# Glc(a1-6)Glc(a1-6)Glc = molecular target: Glc(a1-6)Glc(a1-6)Glc
# Procedure, shortened: as §1
# Glc(b1-4)Glc = molecular target: Glc(b1-4)Glc
# Procedure, shortened: as §1
# Glc(b1-6)Glc = molecular target: Glc(b1-6)Glc
# Procedure, shortened: as §1
# GlcA(b1-3)Gal = molecular target: GlcA(b1-3)Gal
# Procedure, shortened: as §1
# GlcA(b1-3)GlcNAc = molecular target: GlcA(b1-3)GlcNAc
# Procedure, shortened: as §1
# GlcA(b1-6)Gal = molecular target: GlcA(b1-6)Gal
# Procedure, shortened: as §1
# [1] = molecular target: GlcNAc(a1-3)Gal(b1-4)GlcNAc
# Procedure, shortened: as §1
# [2] = molecular target: GlcNAc(a1-6)Gal(b1-4)GlcNAc
# Procedure, shortened: as §1
# [3] = molecular target: GlcNAc(b1-2)Gal(b1-3)GalNAc
# Procedure, shortened: as §1
# [4] = molecular target: GlcNAc(b1-2)Man(a1-3)[GlcNAc(b1-2)Man(a1-6)]Man(b1-4)GlcNAc(b1-4)GlcNAc
# Procedure, shortened: as §1
# GlcNAc(b1-3)Gal = molecular target: GlcNAc(b1-3)Gal
# Procedure, shortened: as §1
# [5] = molecular target: GlcNAc(b1-3)Gal(b1-3)GalNAc
# Procedure, shortened: as §1
# GlcNAc(b1-3)Gal(b1-4)Glc = molecular target: GlcNAc(b1-3)Gal(b1-4)Glc
# Procedure, shortened: as §1
# [6] = molecular target: GlcNAc(b1-3)Gal(b1-4)GlcNAc
# Procedure, shortened: as §1
# [7] = molecular target: GlcNAc(b1-3)Gal(b1-4)GlcNAc(b1-3)Gal(b1-4)GlcNAc
# Procedure, shortened: as §1
# GlcNAc(b1-3)GalNAc = molecular target: GlcNAc(b1-3)GalNAc
# Procedure, shortened: as §1
# GlcNAc(b1-3)Man = molecular target: GlcNAc(b1-3)Man
# Procedure, shortened: as §1
# [8] = molecular target: GlcNAc(b1-3)[GlcNAc(b1-4)][GlcNAc(b1-6)]GlcNAc
# Procedure, shortened: as §1
# [9] = molecular target: GlcNAc(b1-3)[GlcNAc(b1-6)]Gal(b1-4)GlcNAc
# Procedure, shortened: as §1
# [10] = molecular target: GlcNAc(b1-3)[GlcNAc(b1-6)]GalNAc
# Procedure, shortened: as §1
# [11] = molecular target: GlcNAc(b1-4)Gal(b1-4)GlcNAc
# Procedure, shortened: as §1
# GlcNAc(b1-4)GlcNAc = molecular target: GlcNAc(b1-4)GlcNAc
# Procedure, shortened: as §1
# [12] = molecular target: GlcNAc(b1-4)GlcNAc(b1-4)GlcNAc
# Procedure, shortened: as §1
# [13] = molecular target: GlcNAc(b1-4)GlcNAc(b1-4)GlcNAc(b1-4)GlcNAc(b1-4)GlcNAc
# Procedure, shortened: as §1
# [14] = molecular target: GlcNAc(b1-4)GlcNAc(b1-4)GlcNAc(b1-4)GlcNAc(b1-4)GlcNAc(b1-4)GlcNAc
# Procedure, shortened: as §1
# [15] = molecular target: GlcNAc(b1-4)[GlcNAc(b1-6)]GalNAc
# Procedure, shortened: as §1
# [16] = molecular target: GlcNAc(b1-6)Gal(b1-4)GlcNAc
# Procedure, shortened: as §1
# GlcNAc(b1-6)GalNAc = molecular target: GlcNAc(b1-6)GalNAc
# Procedure, shortened: as §1
# GlcNAc3Prop(b1-4)GlcNAc = molecular target: GlcNAc3Prop(b1-4)GlcNAc
# Procedure, shortened: as §1
# Kdn(a2-3)Gal(b1-3)GlcNAc = molecular target: Kdn(a2-3)Gal(b1-3)GlcNAc
# Procedure, shortened: as §1
# Kdn(a2-3)Gal(b1-4)GlcNAc = molecular target: Kdn(a2-3)Gal(b1-4)GlcNAc
# Procedure, shortened: as §1
# [17] = molecular target: Man(a1-2)Man(a1-2)Man(a1-3)Man
# Procedure, shortened: as §1
# [18] = molecular target: Man(a1-2)Man(a1-2)Man(a1-6)[Man(a1-3)]Man
# Procedure, shortened: as §1
# Man(a1-2)Man(a1-3)Man = molecular target: Man(a1-2)Man(a1-3)Man
# Procedure, shortened: as §1
# [19] = molecular target: Man(a1-2)Man(a1-3)[Man(a1-2)Man(a1-6)]Man
# Procedure, shortened: as §1
# [20] = molecular target: Man(a1-2)Man(a1-3)[Man(a1-2)Man(a1-6)]Man(a1-6)[Man(a1-2)Man(a1-2)Man(a1-3)]Man
# Procedure, shortened: as §1
# [21] = molecular target: Man(a1-2)Man(a1-3)[Man(a1-2)Man(a1-6)]Man(a1-6)[Man(a1-2)Man(a1-2)Man(a1-3)]Man(b1-4)GlcNAc(b1-4)GlcNAc
# Procedure, shortened: as §1
# [22] = molecular target: Man(a1-2)Man(a1-3)[Man(a1-6)]Man(a1-6)[Man(a1-2)Man(a1-3)]Man(b1-4)GlcNAc(b1-4)GlcNAc
# Procedure, shortened: as §1
# [23] = molecular target: Man(a1-2)Man(a1-6)[Man(a1-3)]Man(a1-6)[Man(a1-2)Man(a1-2)Man(a1-3)]Man
# Procedure, shortened: as §1
# [24] = molecular target: Man(a1-2)Man(a1-6)[Man(a1-3)]Man(a1-6)[Man(a1-2)Man(a1-2)Man(a1-3)]Man(b1-4)GlcNAc(b1-4)GlcNAc
# Procedure, shortened: as §1
# Man(a1-3)[Man(a1-6)]Man = molecular target: Man(a1-3)[Man(a1-6)]Man
# Procedure, shortened: as §1
# [25] = molecular target: Man(a1-3)[Man(a1-6)]Man(a1-6)[Man(a1-2)Man(a1-3)]Man(b1-4)GlcNAc(b1-4)GlcNAc
# Procedure, shortened: as §1
# [26] = molecular target: Man(a1-3)[Man(a1-6)]Man(a1-6)[Man(a1-3)]Man
# Procedure, shortened: as §1
# [27] = molecular target: Man(a1-3)[Man(a1-6)]Man(a1-6)[Man(a1-3)]Man(b1-4)GlcNAc(b1-4)GlcNAc
# Procedure, shortened: as §1
# [28] = molecular target: Man(a1-3)[Man(a1-6)]Man(b1-4)GlcNAc(b1-4)GlcNAc
# Procedure, shortened: as §1
# Man(a1-6)Man = molecular target: Man(a1-6)Man
# Procedure, shortened: as §1
# Man(b1-4)GlcNAc = molecular target: Man(b1-4)GlcNAc
# Procedure, shortened: as §1
# Neu5Ac(a2-3)Gal = molecular target: Neu5Ac(a2-3)Gal
# Procedure, shortened: as §1
# [29] = molecular target: Neu5Ac(a2-3)Gal(b1-3)GalNAc
# Procedure, shortened: as §1
# [30] = molecular target: Neu5Ac(a2-3)Gal(b1-3)GalNAc(b1-3)Gal(a1-4)Gal(b1-4)Glc
# Procedure, shortened: as §1
# [31] = molecular target: Neu5Ac(a2-3)Gal(b1-3)GalNAc(b1-3)Gal(b1-4)GlcNAc
# Procedure, shortened: as §1
# [32] = molecular target: Neu5Ac(a2-3)Gal(b1-3)GalNAc(b1-4)[Neu5Ac(a2-3)]Gal(b1-4)Glc
# Procedure, shortened: as §1
# [33] = molecular target: Neu5Ac(a2-3)Gal(b1-3)GalNAc6S
# Procedure, shortened: as §1
# [34] = molecular target: Neu5Ac(a2-3)Gal(b1-3)GlcNAc
# Procedure, shortened: as §1
# [35] = molecular target: Neu5Ac(a2-3)Gal(b1-3)GlcNAc(b1-3)Gal(b1-3)GlcNAc
# Procedure, shortened: as §1
# [36] = molecular target: Neu5Ac(a2-3)Gal(b1-3)GlcNAc6S
# Procedure, shortened: as §1
binder,measurement,setting,value
B1,glycan array binding signal (z-score),GalNAc(b1-3)GalNAc,-0.451
same,glycan array binding signal (z-score),GalNAc(b1-4)GlcNAc,-0.415
same,glycan array binding signal (z-score),Glc(a1-4)Glc,-0.443
same,glycan array binding signal (z-score),Glc(a1-6)Glc(a1-6)Glc,-0.438
same,glycan array binding signal (z-score),Glc(b1-4)Glc,-0.447
same,glycan array binding signal (z-score),Glc(b1-6)Glc,-0.441
same,glycan array binding signal (z-score),GlcA(b1-3)Gal,-0.451
same,glycan array binding signal (z-score),GlcA(b1-3)GlcNAc,-0.418
same,glycan array binding signal (z-score),GlcA(b1-6)Gal,-0.407
same,glycan array binding signal (z-score),[1],0.553
same,glycan array binding signal (z-score),[2],-0.436
same,glycan array binding signal (z-score),[3],0.146
same,glycan array binding signal (z-score),[4],-0.432
same,glycan array binding signal (z-score),GlcNAc(b1-3)Gal,-0.434
same,glycan array binding signal (z-score),[5],0.26
same,glycan array binding signal (z-score),GlcNAc(b1-3)Gal(b1-4)Glc,0.234
same,glycan array binding signal (z-score),[6],0.315
same,glycan array binding signal (z-score),[7],1.65
same,glycan array binding signal (z-score),GlcNAc(b1-3)GalNAc,-0.45
same,glycan array binding signal (z-score),GlcNAc(b1-3)Man,-0.427
same,glycan array binding signal (z-score),[8],-0.435
same,glycan array binding signal (z-score),[9],-0.427
same,glycan array binding signal (z-score),[10],-0.455
same,glycan array binding signal (z-score),[11],-0.425
same,glycan array binding signal (z-score),GlcNAc(b1-4)GlcNAc,-0.449
same,glycan array binding signal (z-score),[12],-0.456
same,glycan array binding signal (z-score),[13],-0.436
same,glycan array binding signal (z-score),[14],-0.451
same,glycan array binding signal (z-score),[15],-0.415
same,glycan array binding signal (z-score),[16],-0.425
same,glycan array binding signal (z-score),GlcNAc(b1-6)GalNAc,-0.427
same,glycan array binding signal (z-score),GlcNAc3Prop(b1-4)GlcNAc,-0.419
same,glycan array binding signal (z-score),Kdn(a2-3)Gal(b1-3)GlcNAc,0.418
same,glycan array binding signal (z-score),Kdn(a2-3)Gal(b1-4)GlcNAc,-0.085
same,glycan array binding signal (z-score),[17],-0.454
same,glycan array binding signal (z-score),[18],-0.418
same,glycan array binding signal (z-score),Man(a1-2)Man(a1-3)Man,-0.454
same,glycan array binding signal (z-score),[19],-0.431
same,glycan array binding signal (z-score),[20],-0.407
same,glycan array binding signal (z-score),[21],-0.448
same,glycan array binding signal (z-score),[22],-0.395
same,glycan array binding signal (z-score),[23],-0.423
same,glycan array binding signal (z-score),[24],-0.408
same,glycan array binding signal (z-score),Man(a1-3)[Man(a1-6)]Man,-0.435
same,glycan array binding signal (z-score),[25],-0.459
same,glycan array binding signal (z-score),[26],-0.434
same,glycan array binding signal (z-score),[27],-0.406
same,glycan array binding signal (z-score),[28],-0.453
same,glycan array binding signal (z-score),Man(a1-6)Man,-0.398
same,glycan array binding signal (z-score),Man(b1-4)GlcNAc,-0.448
same,glycan array binding signal (z-score),Neu5Ac(a2-3)Gal,-0.432
same,glycan array binding signal (z-score),[29],0.412
same,glycan array binding signal (z-score),[30],0.576
same,glycan array binding signal (z-score),[31],0.755
same,glycan array binding signal (z-score),[32],0.395
same,glycan array binding signal (z-score),[33],0.453
same,glycan array binding signal (z-score),[34],0.355
same,glycan array binding signal (z-score),[35],0.949
same,glycan array binding signal (z-score),[36],0.307
